Experimental data as given in publication PMC12136788.
The list shows a part of the results.

B1: chr3:148802587:148802588:-_ENSG00000071794_ENST00000310053|hu_mus|hu_hu_hu_mus_False|1_58 (ssRNA)
RNA: GGGAGUUCUACAGUCCGACGAUCUCCAACAACUUGUCCUCUCAUAGUUCCAAAUAAAACCAAAUCUUGCUCUUCAUCACUAGUUAGGAAGUCAUCUGGAGGAAUAAUGUCUUGGAAUUCAAAAUGUGGCAAGAAAGUUGGAUACAACAGAGGAUUGAGCAUCA
B2: chr14:78183846:78183847:+_ENSG00000119705_ENST00000557342|hu_hu|hu_hu_hu_mus_False|28_88 (ssRNA)
RNA: GGGAGUUCUACAGUCCGACGAUCUCUCAGAAAUCUUUCUUCAUCAGCAUCAUCAGAUCCGUGCAAAGCCUUUGCUCUUUGAGCUUGAACGUGGAUCUAUGGGAGGGCUAUAAUAUGCAGAAAAGGUAAUUUUUUUUUUAAAGACAACAGAGGAUUGAGCAUCA
B3: chr7:129668796:129668797:-_ENSG00000091732_ENST00000358303|hu_hu|motif|central (ssRNA)
RNA: GGGAGUUCUACAGUCCGACGAUCGGAAGGAAGCUGGAGGUCCAAGUGACAAAGGCUUUGAAAACGAUCUAGGAAUUCACGGACAAGAAUAGCAGGCUCAUCCAGGGGCAACAUCCCAAAUCGGUCUGGGGAUGGGCUGUCUGGCAACAGAGGAUUGAGCAUCA
B4: 87691091_87691328_4739_CDS_ENSG00000163629_ENST00000511467|human|control|control (ssRNA)
RNA: GGGAGUUCUACAGUCCGACGAUCUAGCACACCAGGUGGAGGUCUGCAGAGAAGCAAGAAUACUUCUGGAGCAGUUCCCCUGAGAGCAGAUAUGACUUCCUGCUGAGAUAGUCCUUUCAAAGAGGCUCCAUUCACUUUCAAGAUCAACAGAGGAUUGAGCAUCA
B5: chr4:33333233:33333234:-_ENSMUSG00000040128_ENSMUST00000049357|mus_hu|FALSE|FALSE (ssRNA)
RNA: GGGAGUUCUACAGUCCGACGAUCUGCCCCAGCAUAAUUUUCCUUUUGGCUCACUUCAGUUAGAAAUGCUGAUUUCUUCAAAUGCGAAUUUUUAAUGUUCUCGGUAUUUUUAAAAGGCUUUUUUUCCUGCUUCUGAAUUCUGUCCAACAGAGGAUUGAGCAUCA
B6: chr8:11702082:11702083:-_ENSG00000164733_ENST00000533455|hu_mus|FALSE|FALSE (ssRNA)
RNA: GGGAGUUCUACAGUCCGACGAUCCUAUAAAACCAGUACAGCUCUUCAUACUUGGUUGAGGUACACAAAGCAUAAAAAUCCUAUUGAAAAAGCAUCGGCUGAGGACAGGACCAAGGAGAGCUGGCCACAUUACCAAUGUCGAUGCAACAGAGGAUUGAGCAUCA
B7: chrX:51638331:51638332:+_ENSG00000179222_ENST00000326587|hu_hu|FALSE|FALSE (ssRNA)
RNA: GGGAGUUCUACAGUCCGACGAUCAGAGAAAUCAUAGACACCAUUUGGGCCUUUUGUGGUGGCAUUCUGGACUUUAAAGGCUGACUUAGGCCUAGCGGCAGCUGCUGAAACCUGAAUGUCAGCCAUCUCAUUGGCAGUUGGGGGCAACAGAGGAUUGAGCAUCA
B8: chr14:89307221:89307222:+_ENSG00000165533_ENST00000346301|hu_mus|hu_hu_hu_mus_False|58_98 (ssRNA)
RNA: GGGAGUUCUACAGUCCGACGAUCUCCUGUUUGGUUAGUUCCAGGGAGCUUCAAAGAUGUGCCAGGGCGUGGGACCUGAGCUAUAGCAUUUUCAUCCAGGAUCAUUUCAGCAAUUCCUUCCUGGUCCACAUCAAUUUCAUCUAUCAACAGAGGAUUGAGCAUCA
B9: 126075815_126079875_1646_CDS_ENSG00000164961_ENST00000318410|human|control|control (ssRNA)
RNA: GGGAGUUCUACAGUCCGACGAUCCUCAGUCAUCCGCUCCGAACCCUCUUUCUUGUAAUGCUCCCAUUUGGUUUGCUUUUCUGAAAGCAUUUGCUUGAACAUCUCUUUGAGUAUAAACUCAAAUUGUGCAGUAUCUAACAGCAGCAACAGAGGAUUGAGCAUCA
B10: chr4:17845017:17845018:+_ENSG00000109805_ENST00000514176|hu_mus|hu_hu_hu_mus_False|68_108 (ssRNA)
RNA: GGGAGUUCUACAGUCCGACGAUCGCUUCCUAACUUAGUAUCUUCAUUAAGGAACUCUGCAAGGUUAGUUUACUUUUUCUGUAGCGCAGCUGUUUUGGCUCGUCUGGGUAAUCUCAUCUUCAUUUCUGAUGGUGGUUCAUGAUCCAACAGAGGAUUGAGCAUCA
B11: chrX:12728449:12728450:+_ENSMUSG00000031010_ENSMUST00000089302|perfect_dup|motif|central (ssRNA)
RNA: GGGAGUUCUACAGUCCGACGAUCAUGCCCUAAGGCUUUUAAAGCUUCAUCUAAACUAUCCACCAAAGAAUUAAAGAACUCGGAAGCAUCAUGUUGUUCACGAAGAUUGACAGGCUCACCCCAAAGCCUGAACUGUUUCCAAAACAACAGAGGAUUGAGCAUCA
B12: chr16:37881740:37881741:+_ENSMUSG00000034158_ENSMUST00000078717|mus_hu|FALSE|FALSE (ssRNA)
RNA: GGGAGUUCUACAGUCCGACGAUCCUGCAAACCAUCAGCCAAAUGUGAAACUAUCAUUCACAAAUUAUGUUAAAAUAAUCUAAACAUGGGACUGGACUCAUUCUUGCUGAAUGGGUAGAUGAAACACAAAAUGUUUUAUAUCAUCAACAGAGGAUUGAGCAUCA
B13: chr2:171811166:171811167:+_ENSG00000115806_ENST00000234160|hu_hu|motif|central (ssRNA)
RNA: GGGAGUUCUACAGUCCGACGAUCUCCUUCCUCAAAUGGGCGUGUAGGUAUUCGAUGCAAAUAACCAUAUCCAAUGCCACAUCCGGGGCUGCCUUCUCCACCCCAUGCAGAAUUUGGUGUAAUAAUCACUUCUCGACAGUUAUCCAACAGAGGAUUGAGCAUCA
B14: chr12:52885226:52885227:-_ENSMUSG00000035247_ENSMUST00000042052|mus_hu|motif|central (ssRNA)
RNA: GGGAGUUCUACAGUCCGACGAUCUUUAAAAACAUUUAUUCUUUCUACCAGUUGACUACAAUCUUGUUUCAUAUCCAAAUCCAUGCGGUUGUUUAACACAGUAAGAAGUGCUUGUACCAAGCCACUGCUACACAUUUCAUAUGGCAACAGAGGAUUGAGCAUCA
B15: 61654106_61657301_1337_CDS_ENSG00000068796_ENST00000381103|human|control|control (ssRNA)
RNA: GGGAGUUCUACAGUCCGACGAUCACCCAUAGUAUGAGUUUUUCCACUUCCAGUCUGCCCAUAAGCAAAGCAUGUAGCCAUUCCCCUUUCAAAUAUAGUUUCCACUAGUGGUCUAGCAGUAAACCUGUAAACCAUUUCAUUAGGCAACAGAGGAUUGAGCAUCA
B16: chr8:74746221:74746222:+_ENSMUSG00000003039_ENSMUST00000003123|mus_hu|FALSE|FALSE (ssRNA)
RNA: GGGAGUUCUACAGUCCGACGAUCUACACAGCUUCGAAAAGCAGUCUGUAGCAGAAGAUGCAAGGGUGUGUGUAGCCAUGUUUCCAGAAUAUACCAAAGGAAACACACACAACCCCAGUGUGGCCUUUUGCGAACCCUCGAUGCCAACAGAGGAUUGAGCAUCA
B17: chr1:225611761:225611762:-_ENSG00000143815_ENST00000272163|hu_mus|hu_hu_hu_mus_True|8_8 (ssRNA)
RNA: GGGAGUUCUACAGUCCGACGAUCCCAGGCCAUCGGCCUCUGACCACUUCACCCUCAACAAACUUCCUACUUGGCAUUUUCUAAAAUUAGUCUGGCCGCGCUCCGGCGGGAACUCCAGCCACUCCAGGGAGAAUAGUAGCAGCCCAACAGAGGAUUGAGCAUCA
B18: chr4:144460044:144460045:+_ENSG00000153147_ENST00000283131|hu_mus|hu_hu_hu_mus_False|68_88 (ssRNA)
RNA: GGGAGUUCUACAGUCCGACGAUCACGGUCCAUAGCCUGAAGAUCAACUUGGGGAUUCCAAUCUGAGUCAUACAAAAUGACUACAUCAGCAGUUGCAAGAUUGAUGCCCAGACCACCAGCACGUGUGCUUAGCAUAAAUACAAACAACAGAGGAUUGAGCAUCA
B19: chr5:143665068:143665069:-_ENSMUSG00000029580_ENSMUST00000100497|mus_mus|FALSE|FALSE (ssRNA)
RNA: GGGAGUUCUACAGUCCGACGAUCCAUAAUUUACACAGAAGCAAUGCUGUCACCUUCCCCGGGGUGGACUCAGGGCAUGGACGCGACCAUCCUCCUCUUAGGAGUGGGGGUGGCUUUUGGGAGGGUGAGGGACUUCCUGUAACCCAACAGAGGAUUGAGCAUCA
B20: chr16:94690093:94690094:+_ENSMUSG00000040785_ENSMUST00000117648|mus_hu|mus_mus_mus_hu_True|28_78 (ssRNA)
RNA: GGGAGUUCUACAGUCCGACGAUCGGGCUGGGAUGACGGACACACAGCCUCGAUUCCGGUAAAAAAAAGUCUUAGUCGAUACUAAUUAAAAAGUGUUAAUGAUUUUUAUUACCAAAAUUACAUCUAUAAAAGAUGAAAAGCAAACAACAGAGGAUUGAGCAUCA
B21: 94668236_94668435_1030_CDS_ENSMUSG00000038902_ENSMUST00000107270|mouse|control|control (ssRNA)
RNA: GGGAGUUCUACAGUCCGACGAUCCUUCACAGUGACAAAGCUGGCAAUGCUCACUGCAGGUGGAGAGGGGAAGGAGGGAGCUAGUUUGGGAUUCGAGGUCUGGUUGGACUGGCCUGGAGGCUGACCAGCUAGCUGCCCCAGUGACAACAGAGGAUUGAGCAUCA
B22: chr14:70181642:70181643:+_ENSG00000100647_ENST00000342745|hu_mus|FALSE|FALSE (ssRNA)
RNA: GGGAGUUCUACAGUCCGACGAUCAAAGCAAACCCAGAUUGAUUGACAUCCUGCACAGUCAAUUAAGCAUGUGUUGUUUAAACCAUUUUAUGAGUACCAUUCUGCAAAGGAUCCCAUAGUGGUGCACAGCCUUAAGAAGCCAGGCAACAGAGGAUUGAGCAUCA

biological target: T1, UNK ZnF1-3 (human, UniProt Q9C0B0 31-174); assay: nsRBNS (natural sequence RNA bind-n-seq); RBNS binding buffer (assumed for nsRBNS): 25 mM Tris pH 7.5, 150 mM KCl, 3 mM MgCl2, 0.01% Triton X-100, 500 ug/ml BSA, 20 U/ml SUPERase-In, 4 C; UNK is unkempt and MSI1 is Musashi-1; names of the RNAs are library labels; protein concentration not given here; high values mean tight binding
T1 sequence: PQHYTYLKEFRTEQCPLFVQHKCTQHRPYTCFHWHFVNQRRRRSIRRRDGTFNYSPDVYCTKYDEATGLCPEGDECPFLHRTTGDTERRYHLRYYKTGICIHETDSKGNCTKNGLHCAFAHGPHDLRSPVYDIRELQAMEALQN

Row | Binder | binding signal [enrichment R]
1 | B1 | 1.08
2 | B2 | 1.63
3 | B3 | 1.41
4 | B4 | 1.08
5 | B5 | 0.585
6 | B6 | 1.07
7 | B7 | 1.17
8 | B8 | 0.829
9 | B9 | 0.885
10 | B10 | 0.488
11 | B11 | 1.65
12 | B12 | 0.87
13 | B13 | 1.02
14 | B14 | 0.974
15 | B15 | 0.89
16 | B16 | 0.731
17 | B17 | 1.23
18 | B18 | 1.26
19 | B19 | 0.971
20 | B20 | 0.946
21 | B21 | 0.989
22 | B22 | 1.23
